Experimental data from the supplement of paper PMC3334620.
Whole data set: some 33,000 sequences, median “E-score (-0.5 to 0.5)” near -0.016, cut for the highest 2% near 0.32. The list shows a part of the results.

target: T1, Stp1 (UniProt B3LFK1); test: PBM E-score (8-mer binding enrichment) (E-score (-0.5 to 0.5)); higher = stronger / more preferred TF binding; most listed sequences are background and not binding sites; conditions: protein concentration: 200 nM; construct: GST-full length
T1 sequence: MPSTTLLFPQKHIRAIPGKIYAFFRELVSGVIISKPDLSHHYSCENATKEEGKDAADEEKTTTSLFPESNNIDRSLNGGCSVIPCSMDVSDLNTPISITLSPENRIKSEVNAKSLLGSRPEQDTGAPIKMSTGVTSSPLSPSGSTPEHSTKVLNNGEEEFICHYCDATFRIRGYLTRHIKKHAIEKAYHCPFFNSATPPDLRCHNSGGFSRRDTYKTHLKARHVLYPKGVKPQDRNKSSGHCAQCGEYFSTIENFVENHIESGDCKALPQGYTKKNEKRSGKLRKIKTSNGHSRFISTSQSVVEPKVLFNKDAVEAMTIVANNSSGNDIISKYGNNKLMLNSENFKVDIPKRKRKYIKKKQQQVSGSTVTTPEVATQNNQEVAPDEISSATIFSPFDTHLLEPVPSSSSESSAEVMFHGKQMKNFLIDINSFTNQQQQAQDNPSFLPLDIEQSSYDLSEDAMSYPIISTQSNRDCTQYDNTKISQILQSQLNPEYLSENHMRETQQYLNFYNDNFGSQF
Procedure, shortened: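 Detection of bound protein used fluorescent anti-GST, with scans normalised by masliner. The proteins were GST-tagged yeast transcription factors applied at about 100-200 nM to universal all-10-mer Agilent arrays made double-stranded by primer extension. Each ungapped eight-base word, pooled with its reverse complement, was scored with an E-score from the Universal PBM Analysis Suite.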

In order of falling “PBM E-score” value:
1. CGCCGCAC  0.478
2. CGGCCGTA  0.37
3. CCGCGTCC  0.296
4. GGCATCTA  0.295
5. CGGCGAAG  0.292
6. CCGCAGGC  0.265
7. AGAACGCC  0.256
8. AAAAAAAA  0.252
9. CGGCTACA  0.245
10. AATATCAT  0.237
11. GGCATGAA  0.232
12. CGGGGCAC  0.231
13. CGCGCGTA  0.215
14. TATACCAA  0.213
15. AATGCAAA  0.209
16. GATTTTCA  0.197
17. CGCAGGCA  0.197
18. AATGTAAT  0.185
19. CTCGCGAG  0.184
20. ACAAACTA  0.176
21. CGCGCCCG  0.172
22. CGTATATA  0.167
23. CGGGATTC  0.167
24. ATACGTAA  0.153
25. AAGCTGAT  0.153
26. ACGTATGA  0.15
27. AAAAAATA  0.141
28. AGTAAGTA  0.14
29. GCGTAAAA  0.139
30. AGGCACTC  0.139
31. TCACCAAA  0.136
32. CCTAGTGC  0.135
33. CTACGGCC  0.126
34. TCCACAAA  0.11
35. GGAATCCA  0.108
36. GGCTACAC  0.107
37. AATAGATA  0.101
38. AATTGGGC  0.0998
39. AACGCGGA  0.0987
40. ACTATTAT  0.0978
41. GTATTGAA  0.0945
42. GAGATCAA  0.0945
43. ACGATTTA  0.0942
44. ATTTCCGC  0.0933
45. GCTACTAA  0.0928
46. CCGGCGAA  0.088
47. CTGTAAAA  0.0877
48. CTAAATCC  0.0807
49. CACGCCGA  0.0798
50. AATTTTCG  0.0788
51. CCACTGAA  0.0781
52. CGAAAACA  0.0759
53. CTGCCACA  0.0726
54. CCGCTGCG  0.0683
55. CACCCACA  0.0668
56. ATAGCATA  0.0615
57. GGATCAAA  0.0615
58. ACAGTATA  0.0606
59. ATGTTTCA  0.0604
60. CACAGCAC  0.0573
61. GGGCACCA  0.056
62. AACAAATC  0.0549
63. GGATCGCC  0.0502
64. TGCGACAA  0.0498
65. CTAGCAAA  0.0489
66. AACGTCTG  0.0488
67. CATTAGCC  0.0474
68. ACAAGTAC  0.0453
69. GGATGATA  0.0377
70. CGTCACGA  0.0354
71. AAAGACGA  0.0348
72. CGTTGAAA  0.0307
73. AAGCCACT  0.0282
74. GCTATCAA  0.0278
75. ATCCATGG  0.0254
76. ACGAGATG  0.0243
77. AAGACCAT  0.0176
78. AGCACAAG  0.0159
79. AGACAGTA  0.0158
80. AGTTCTCA  0.0157
81. GCTTGTAA  0.0149
82. AATGTTGT  0.0132
83. TGAATGCA  0.00939
84. CGCAAATC  0.00574
85. ACTCAACT  0.00459
86. CTTTGGTC  0.00451
87. CTCTCTAC  0.00217
88. AAGCAGAA  -2e-05
89. CTCACAAG  -0.00272
90. CAGGCTAA  -0.00415
91. ATTCTTAG  -0.00709
92. AACTCTAA  -0.00844
93. CTCTAAAC  -0.0103
94. CTTTTAGC  -0.015
95. CGAGAGCA  -0.0153
96. CAGTGAGC  -0.0174
97. ATGGGTGA  -0.0293
98. GCTCTCTA  -0.0314
99. ATGCGATG  -0.0343
100. AATTCTCG  -0.0365
101. AGCTCGAT  -0.0431
102. AGGTTATG  -0.0463
103. CCGACACG  -0.0479
104. AATCTTGG  -0.0482
105. ATCGAGCA  -0.0488
106. ACTGGTTC  -0.0557
107. ACTGTAGC  -0.0579
108. ACGCTCAA  -0.06
109. AAGCCTGT  -0.0611
110. ACCCGAAC  -0.0629
111. CCACGGGA  -0.0649
112. GAAGCTAA  -0.0649
113. TGTCTCAA  -0.0662
114. GATTATCC  -0.0707
115. AATCCTAA  -0.0723
116. TAGACCCA  -0.0742
117. GATTAACC  -0.0752
118. GACAGGTA  -0.0762
119. TCTGGCAA  -0.0798
120. CGTTCCCC  -0.0811
121. ACCCTACA  -0.0818
122. GCGAGCAA  -0.0847
123. GGAGCCAA  -0.0874
124. CATTCGAC  -0.0891
125. GTTACCTA  -0.0893
126. AGGACAAG  -0.0893
127. AGGAAGGG  -0.0935
128. CAAATGGG  -0.101
129. AGGTACAC  -0.102
130. GGTAACGA  -0.111
131. GCTTTTCA  -0.111
132. AATCCGGG  -0.118
133. CCTATAGA  -0.119
134. CCAACCAG  -0.122
135. AACGCTAA  -0.131
136. GAAGAAGC  -0.136
137. CCCCGAAG  -0.137
138. GTCACGTA  -0.14
139. CCGGGACC  -0.14
140. CGACTGTC  -0.146
141. GATCTGGA  -0.147
142. AGCCGACC  -0.157
143. GTCTACCA  -0.164
144. CTCTAGCA  -0.169
145. GGACGTCA  -0.181
146. AGTTCTCC  -0.181
147. GCCGGGGA  -0.184
148. CGGTCGCA  -0.199
149. CCGCCAGG  -0.201
150. ATGGTCTC  -0.204
151. GAAAGCTA  -0.205
152. ACACCCTG  -0.214
153. CTGGCCAG  -0.223
154. ACCCTGTC  -0.226
155. GTTCCACA  -0.228
156. CGGTCCCA  -0.229
157. ATGGTACA  -0.236
158. ACGAGACT  -0.243
159. GGAGCCAC  -0.246
160. AAGGAGAT  -0.248
161. GCTACTCC  -0.253
162. AGGGGTTG  -0.261
163. TCCTCCCA  -0.262
164. ATTAGGGG  -0.269
165. GAAGGGAC  -0.285
166. CCGGAATC  -0.297
167. AGGGAGAG  -0.299
168. CTCTCCCC  -0.316
169. AGGGGTAG  -0.323
170. CGCCCCCA  -0.353
171. ACCCCTCC  -0.383
172. CCCCCGTC  -0.393
